This assay deals with T1, recombinant His6-tagged HP1β W170A (human, UniProt P83916 1-185, W170A).
T1 construct: human HP1β (GenBank BC002609) with tryptophan 170 changed to alanine; also called W170A mutant (mt) His6-HP1β; mutant HP1β W170A protein; source: recombinant; not shown: His6, N-terminal, kept
Briefly: pull-down; H3 peptides on magnetic beads, recombinant His6-HP1 proteins added (in TNT reticulocyte lysate with ADNP-FLAG); anti-His6 western blot. The note with it: both partners purified. A general note: A western blot detects proteins with antibodies after separation by electrophoresis.

Results on one molecule are retold here after paper PMC3022755, “HP1 Recruits Activity-Dependent Neuroprotective Protein to H3K9me3 Marked Pericentromeric Heterochromatin for Silencing of Major Satellite Repeats” (PLoS ONE, 2011).

T1 sequence (P83916 whole entry W170A): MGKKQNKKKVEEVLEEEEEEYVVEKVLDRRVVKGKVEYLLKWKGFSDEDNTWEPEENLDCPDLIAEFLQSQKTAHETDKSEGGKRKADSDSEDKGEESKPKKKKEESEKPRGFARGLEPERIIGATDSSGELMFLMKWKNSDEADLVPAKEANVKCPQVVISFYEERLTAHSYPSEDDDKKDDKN

B1: H3K9me3 peptide, …(me3)…-biotin (peptide)
peptide: not shown
modifications: trimethyl-lysine at K9; biotinylated lysine residue at the C-terminus
notes: histone H3 N-terminal tail, K9 trimethylated; added C-terminal lysine that carries the biotin; immobilised on magnetic beads through the biotin; also called H3K9me3 matrix; H3 ([…]) trimethylated at lysine 9; source: synthetic peptide
Regarding B1, the binding result is recorded as “binds”.
